According to the supplement of paper PMC11417369:
± gives the standard deviation of the averaged measurements. This is one part of the list.

system: PfAP2-G AP2 domain (GST-tagged); assay: gcPBM binding intensity (ln(normalized median fluorescence intensity)); higher = stronger DNA binding
How it was run: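 An Agilent 4 × 180k array carrying primer-extended double-stranded 36-bp intergenic genomic probes and negative controls received GST-tagged P. falciparum DNA-binding domains expressed in E. coli, about 25 μg on average, for 1 h. The binding buffer contained 1× PBS, 1% milk, 0.2 mg/ml BSA, 0.5% salmon testes DNA and 0.03% Triton X-100. Binding intensity is the top Masliner-normalised natural-log median intensity across replicate spots of either probe orientation, read after Alexa488 anti-GST antibody staining and a 488 nm scan.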

Row | Sequence | gcPBM binding intensity (ln)
1 | AATAATTTCCAAAAATGTACATATATTTACATATAT [XGTACX_site1790] | 10.9 ± 0.52
2 | ATTTTAACTCCCCTTAATCTATTGTATATATATATA [CACACA_negctrl_site208] | 9.9 ± 0.42
3 | TAATAAATGTTATTAGTGCATAATAGATAATATATT | 9.96 ± 0.18
4 | AAATAAAATAAAATACGTACCTATTGTGCGTATTAA [XGTACX_site2912] | 11.1 ± 0.69
5 | ATAAATATAGGACACACACACATATTATATATATAT [CACACA_site5658] | 10.9 ± 0.51
6 | AAATATAATATATGCACACATACATACAGATATATA [CACACA_site4235] | 10 ± 0.13
7 | GTTATATTCCTACAGAGTACATAAAAATGCACATCA [XGTACX_site1948] | 11.2 ± 0.91
8 | ATAATATAAATATGCACACAAATTATTACCCAAAAA [CACACA_site2524] | 10.3 ± 0.13
9 | AAATGAACAAGTGGCACACACACATCATAACTAATT [CACACA_site5730] | 10.4 ± 0.31
10 | TATATAAAAAAACAAAGTACATGTTCTTAATCATTT [XGTACX_site8446] | 10.9 ± 0.54
11 | TATATATATATATACACACACACACCGATATATATA [CACACA_site8813] | 10.1 ± 0.38
12 | CACGCGAACATACATACACACACATATATATATATG [CACACA_site7951] | 10.4 ± 0.2
13 | CAAAATATATATACCACACACACATACCTCTATTTG [CACACA_site1853] | 10.2 ± 0.16
14 | ATATATTTTTTCTTAACACACATATATAAAATAAAA [CACACA_site3500] | 10 ± 0.17
15 | CTAGCAAATACATACACACACACACCGATACAGATA [CACACA_site5853] | 10.1 ± 0.11
16 | ATATATACATATATTACACACTTCTTATTCTAAGAA [CACACA_site3022] | 10 ± 0.19
17 | CATACATACATACATACACACATACCTATATTTATA [CACACA_site6769] | 10.6 ± 0.27
18 | TTAATAACAAAATAAACACACATATATAAATACCCA [CACACA_site4960] | 10 ± 0.11
19 | TCCATAAAAATGGATACACACACATAATATATATAT [CACACA_site9207] | 10.3 ± 0.35
20 | TATAATATAAGGATCACACACAAACACCCATATATA [CACACA_site4468] | 10.4 ± 0.21
21 | TTCACATACAGAAACACACACATATATATAAATTAA [CACACA_site3705] | 10.02 ± 0.099
22 | TGTATGATAACTATAGTGCATTTGGTAATTTTTCCA | 10.06 ± 0.085
23 | TTGCCCATTTAATTAACACACAAATGTTTATATTCT [CACACA_site6488] | 10.04 ± 0.049

Row | Sequence | gcPBM binding intensity (ln)
24 | TTTGAAATAAGCAAATGTACATTATTATTAAATATA [XGTACX_site6158] | 10.8 ± 0.42
25 | AATAATATATATTACACACGCATCGTTCATTTATTT [CACACA_site2391] | 9.9 ± 0.16
26 | TATTTCATGATACAATGTACATGTATATATGATACC [XGTACX_site5057] | 11 ± 0.57
27 | ATTTATTTGTTTGTTTTTTTTACGATTTTTATTTTT [CACACA_negctrl_site1138] | 9.79 ± 0.13
28 | CGTATTTATATAATTACACACCATATTTTAATTATT [CACACA_site5960] | 9.965 ± 0.078
29 | ATAAACAATTAACAAACATGCAAATTTTAAATGTGT [TGCATGCA_site919] | 9.74 ± 0.085
30 | AATAGTATTCACAAAGTTTTATATAATAAATATAAA [GTGCAC_negctrl_site154] | 9.84 ± 0.2
31 | TAATTTTTTTTTCTTGTACACACTATTTTATAATTT [CACACA_site4078] | 11.4 ± 0.67
32 | ATCTATGATATATACACACACATGTATAAATAAATA [CACACA_site7012] | 9.945 ± 0.035
33 | TTTTTTTTTTTGATTTGTACACAAAAAAAATATATG [XGTACX_site4547] | 11.3 ± 1
34 | CTTTCATATGTTTTAACACACACGCATATATTATAT [CACACA_site8615] | 10.13 ± 0.064
35 | AGATATATGGACGACTCACACATTTAAATTCATTCA [CACACA_site6047] | 10.9 ± 0.55
36 | TTTTTTTTTTTTTTTTGTACATATTTTTAAACTATA [XGTACX_site2897] | 11 ± 1.1
37 | TTTTTTTTTTGATGTTGTACATATATATTATATATA [XGTACX_site6377] | 11.3 ± 0.83
38 | TAAATACACCCTAGACGTACATAAAAATTTAGTATG [XGTACX_site2512] | 11.6 ± 0.76
39 | ATTAATAATGAGTTATGTACATACATATTTTAAGAT [XGTACX_site7543] | 11.1 ± 0.59
40 | AGAAATGAAATATACACACATACATATATACATATA [CACACA_site4033] | 9.725 ± 0.078
41 | ACCCTCATATTATAGACACACACAAAAAAAATAAAA [CACACA_site7941] | 10.2 ± 0.49
42 | TTTTTTTTTTTAATTTGTACGAATCTTTTTATTTTA [XGTACX_site4516] | 10.8 ± 0.42
43 | ATATTTATATATATGTGTACATATAGAAACATAAAA [XGTACX_site4355] | 11.3 ± 0.93
44 | AAAAACAAACTGTGCATGCACCAAAAAAAAAAAAAA | 9.92 ± 0.38
45 | TAAACATACATATACACACACACACCCACACCCACA [CACACA_site492] | 10.4 ± 0.41
